Screen size: about 310,000 compounds; about 14,000 (4.5%) showed an effect of 50% or more. Effects have a minus sign here. Some of the results follow.
What follows are molecules tested against human ether-à-go-go-related gene (hERG) potassium channel (human, UniProt Q12809) (assay: primary screen, population patch clamp on CHO cells stably expressing hERG).
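Note: peak tail current of the secondary pulse compared with the same well before compound.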

human ether-à-go-go-related gene (hERG) potassium channel, sequence (Q12809 whole entry, looked up): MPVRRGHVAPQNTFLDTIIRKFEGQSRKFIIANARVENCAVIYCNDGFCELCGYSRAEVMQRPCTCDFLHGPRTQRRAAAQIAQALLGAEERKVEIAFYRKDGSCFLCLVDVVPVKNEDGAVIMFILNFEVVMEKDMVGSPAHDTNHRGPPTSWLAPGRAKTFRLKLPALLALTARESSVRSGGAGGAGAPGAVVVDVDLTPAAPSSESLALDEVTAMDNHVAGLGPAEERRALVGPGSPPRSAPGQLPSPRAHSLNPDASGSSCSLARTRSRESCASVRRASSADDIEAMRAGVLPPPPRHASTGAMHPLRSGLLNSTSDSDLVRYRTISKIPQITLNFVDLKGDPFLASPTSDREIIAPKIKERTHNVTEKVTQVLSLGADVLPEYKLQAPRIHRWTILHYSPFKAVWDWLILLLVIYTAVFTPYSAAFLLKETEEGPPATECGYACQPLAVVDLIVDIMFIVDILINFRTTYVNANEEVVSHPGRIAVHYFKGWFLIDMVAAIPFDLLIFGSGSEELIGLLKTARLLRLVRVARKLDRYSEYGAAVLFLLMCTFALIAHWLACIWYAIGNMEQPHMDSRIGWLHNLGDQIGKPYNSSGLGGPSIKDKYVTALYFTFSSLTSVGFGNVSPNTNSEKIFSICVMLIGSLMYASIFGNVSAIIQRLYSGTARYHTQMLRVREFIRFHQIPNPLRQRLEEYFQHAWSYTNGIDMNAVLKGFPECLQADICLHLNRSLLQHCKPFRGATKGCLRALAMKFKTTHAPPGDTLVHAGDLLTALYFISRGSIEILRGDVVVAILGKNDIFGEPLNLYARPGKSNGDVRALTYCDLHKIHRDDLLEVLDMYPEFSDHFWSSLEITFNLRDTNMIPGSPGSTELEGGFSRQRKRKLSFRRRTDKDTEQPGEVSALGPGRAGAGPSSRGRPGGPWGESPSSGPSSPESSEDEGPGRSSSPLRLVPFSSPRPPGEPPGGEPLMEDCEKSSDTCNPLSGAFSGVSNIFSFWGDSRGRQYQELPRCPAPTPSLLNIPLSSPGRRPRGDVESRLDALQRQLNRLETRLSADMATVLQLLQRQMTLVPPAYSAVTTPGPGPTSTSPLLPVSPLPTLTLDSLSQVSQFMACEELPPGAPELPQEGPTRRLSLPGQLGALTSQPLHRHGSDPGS

| SMILES | hERG current change (%, negative = inhibition) at 10uM [%] |
| --- | --- |
| Cn1c(=O)c2c(nc(NN=C3CCCC3)n2C)n(C)c1=O | 12.7 |
| CC(C)Oc1cccc(-c2nnc(SCC(=O)Nc3ccc4c(c3)OCCO4)n2N)c1 | -8.81 |
| COC(=O)c1ccc(NC(=O)c2c(C(=O)Nc3ccccc3)sc3nc(C)cc(=O)n23)cc1 | 15.3 |
| COc1ccc(S(=O)(=O)n2c([N+](=O)[O-])cnc2C)cc1OC | 19.1 |
| Cc1cc(C)nc(N2CCN(c3ccc(F)cc3)CC2)n1 | 13.2 |
| NC(=O)C1CCN(C2=C(NS(=O)(=O)c3ccc(Cl)cc3)C(=O)c3ccccc3C2=O)CC1 | -38.3 |
| CCCCn1c(N)c(N(CCC(C)C)C(=O)CC2CCCC2)c(=O)[nH]c1=O | 14.9 |
| CN1/C(=C\C(=O)COC(=O)CNC(=O)c2ccc3ccccc3c2)C(C)(C)c2ccccc21 | -20.4 |
| CCCCCc1ccc(-c2nnc(N)s2)cc1 | 13.6 |
| COc1cc(CN2CCSCC2)c([N+](=O)[O-])cc1OC | -9.35 |
| Cc1ccc(Cl)c(OCC(=O)Nc2sc(C)c(C)c2C#N)c1 | 6.08 |
| COc1ccc(Oc2nc3ccccc3n3cccc23)cc1 | 3.63 |
| O=C(CSc1nnc(-c2cccnc2)o1)Nc1ccc(Br)cc1 | 12.9 |
| CCN1CCN(CC(=O)Nc2ccc(N(C)C)cc2)CC1.O=C(O)C(=O)O | -2.52 |
| CCn1c2ccccc2c2cc(NS(=O)(=O)c3ccc(C)cc3)ccc21 | 14.1 |
| COc1ccc2[nH]c(C(=O)NCc3ccc4c(c3)OCO4)cc2c1 | 10.4 |
| Cc1ccccc1-n1c(=O)c2ccccc2n(CC(=O)NCc2ccco2)c1=O | -7.12 |
| COc1ccc(NS(=O)(=O)c2ccc3nc(COc4cccc5ccccc45)[nH]c3c2)cc1 | 21.9 |
| Cc1ccc(NS(=O)(=O)N2CCOCC2)cc1Cl | 0.803 |
| COc1ccc(C2CC(c3ccc4ccccc4c3)=NN2C(=O)COC(=O)C2CCC(=O)N2)cc1 (centres unmarked) | 1.4 |
| Cc1cccc(C(C)C)c1NC(=O)COC(=O)CCN1C(=O)C2CC=CCC2C1=O (centres unmarked) | 3.04 |
| C=C1N(c2ccc(Cl)cc2)C(=O)OC1(C)C | -11.4 |

| SMILES | hERG current change (%, negative = inhibition) at 10uM [%] |
| --- | --- |
| Cc1cccc(-n2c(SCc3ccc([N+](=O)[O-])cc3)nnc2-c2c[nH]c3ccccc23)c1 | 16.5 |
| CCCCC(c1nnnn1CCOC)N1CCN(CC)CC1.Cl (centres unmarked) | -3.08 |
| COc1ccc(N2CCN(C(=O)c3ccc4c(c3)OCO4)CC2)cc1 | -21.7 |
| CC(=O)N1CC(=O)Nc2ccc(F)cc2C1c1ccccc1 (centres unmarked) | 8.94 |
| CC(=O)OCCn1c(Br)nc2c1c(=O)[nH]c(=O)n2C | 6.43 |
| O=C(OCC(=O)c1ccc[nH]1)c1ccc([N+](=O)[O-])cc1 | -21.4 |
| Cc1ccc(S(=O)(=O)/C(C#N)=C/c2c(N3CCC(C(N)=O)CC3)nc3ccccn3c2=O)cc1 | -55.3 |
| Cc1ccc(C2=NCCn3c2c2ccc(C(F)(F)F)cc2[n+]3[O-])cc1 | -26.2 |
| COc1cc(C(=O)Nc2ccncc2)cc(OC)c1OC | -4.68 |
| COC(=O)c1ccc(Oc2ccc(S(=O)(=O)N3CCCCC3)cc2N)cc1 | 5.03 |
| C=CCn1c(C)cc(C(=O)CSc2nnc(NCc3ccccc3)s2)c1C | -8.54 |
| Oc1ccc(Br)cc1Cn1nnc2ccccc21 | 9.97 |
| O=C(CSC1=Nc2ccccc2C2CC=NN12)Nc1ccc(F)cc1Cl (centres unmarked) | 21.1 |
| CCOc1cc(NC(=O)c2ccco2)c(OCC)cc1NC(=O)CCC(=O)NCc1cccnc1 | -9.73 |
| O=C(NC1CCCCC1)c1ccc(-c2cccc([N+](=O)[O-])c2)o1 | 12.4 |
| CCCN1C2CCCC1CC(NC(C)=O)C2 (centres unmarked) | 18 |
| Cn1c(CCC(=O)OCC(=O)Nc2ccc(Oc3ccccc3)cc2)nc(=O)c2ccccc21 | -53.3 |
| O=C(NC(Cc1ccccc1)C(=O)N1CCCC(C(F)(F)F)C1)c1ccccc1 (centres unmarked) | -21.7 |
| O=C1[C@@H]2CSCN2C(=O)CN1CCc1cccc(F)c1 | -20.9 |
| CCCCCN(C(=O)CCC(=O)OCCOc1ccccc1Cl)c1c(N)n(CCCC)c(=O)[nH]c1=O | -41.3 |
| O=C(O)C1CCN(S(=O)(=O)c2ccc(Oc3ccccc3)cc2)CC1 | 17.8 |
| CCNC(=S)N1CCN(S(=O)(=O)c2ccccc2C(F)(F)F)CC1 | -9.38 |

— publication PMC4336329 (PLoS ONE, 2015)
